# In PubChem BioAssay (NCATS):
# Where “and” joins values, the source holds several entries; their conditions need not be identical. Identical values can stand only once. The shares of active, inactive and inconclusive entries below differ from those in the screen. A call without a number means that no potency is given here. For some assays here: Potencies of inconclusive entries are doubtful fits and often do not repeat. Calls of active or inactive are those of the source. Unless noted, calls follow the shape of the dose curve; as a rule, active = well fitted curve in the direction sought with a large enough effect; inconclusive = small, poorly fitted or top-dose-only effect, or another doubt; inactive = no such curve, though single readings can be large; an effect the other way counts as inactive or inconclusive.
# Experiments:
# SKOV3 = experiment: Primary qHTS to identify gynecologic anti-cancer compounds using libraries of approved drugs and bioactive compounds (AID 1345084); settings: Gynecologic cancer cell panel viability, ATPlite luminescence, 48 h; series mostly up to 57.5 µM; also: nearly all actives have a fitted effect of over 55% in size; also: potency is read from the fitted curve at half-maximal effect
# In short: (§1)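 Five-concentration response, 48 h; readout is ATP-driven luciferase luminescence.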
# Tov-21-G = experiment: as above; settings: Gynecologic cancer cell panel viability, ATPlite luminescence, 48 h; series mostly up to 57.5 µM
# In short: as §1
# [1] = target: Ubiquitin carboxyl-terminal hydrolase 2 (Homo sapiens) (UniProt O75604); experiment: qHTS for Inhibitors of Ubiquitin-specific Protease USP2a Using CHOP2 as the Reporter: K484 Substrate (AID 652173); settings: USP2 cleavage of DiUb K48 IQF substrate, fluorescence; at 57.5 µM (top of the series);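 also: cleavage of internally quenched K48 di-ubiquitin substrate measured as rising fluorescence over time; nearly all actives have a fitted effect of over 70% in size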
# Sequence of UniProt O75604 (O75604 whole entry, looked up): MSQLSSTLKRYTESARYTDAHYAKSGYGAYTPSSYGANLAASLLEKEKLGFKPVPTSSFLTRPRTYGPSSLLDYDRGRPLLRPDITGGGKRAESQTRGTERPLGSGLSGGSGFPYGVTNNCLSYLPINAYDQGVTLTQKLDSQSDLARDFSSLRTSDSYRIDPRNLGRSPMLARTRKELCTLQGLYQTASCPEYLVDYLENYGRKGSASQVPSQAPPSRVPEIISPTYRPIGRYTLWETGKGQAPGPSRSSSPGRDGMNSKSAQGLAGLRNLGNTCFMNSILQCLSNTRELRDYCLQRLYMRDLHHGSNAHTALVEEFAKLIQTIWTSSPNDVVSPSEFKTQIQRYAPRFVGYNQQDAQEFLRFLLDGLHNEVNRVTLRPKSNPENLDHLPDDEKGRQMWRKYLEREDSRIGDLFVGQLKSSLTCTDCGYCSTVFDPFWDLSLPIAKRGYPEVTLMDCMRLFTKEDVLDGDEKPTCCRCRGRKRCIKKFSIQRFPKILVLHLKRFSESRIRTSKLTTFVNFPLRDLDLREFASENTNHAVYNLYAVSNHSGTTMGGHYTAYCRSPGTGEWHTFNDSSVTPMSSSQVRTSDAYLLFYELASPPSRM
# In short: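 Kinetic fluorescence (Ex 525/Em 598) tracked cleavage of an internally quenched K48 di-ubiquitin substrate, added as a 100 nM solution. The enzyme was added as a 5 nM USP2 solution before compound pinning, with no-enzyme controls. Buffer: Tris pH 8, beta-mercaptoethanol, CHAPS.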
# [2] = qHTS of pediatric cancer cell lines to identify multiple opportunities for drug repurposing: Primary screen for OHS-50 cells (AID 1347103); settings: OHS-50 osteosarcoma viability, CellTiter-Glo luminescence, 48 h; activity change, negative = cytotoxic: at 57.3 µM (top of the series); also: nearly all actives have a fitted effect of over 40% in size
# In short: (§2)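 Cells (500-1,000/well) rested 5 h, then received compounds for 48 h; metabolically active cells were measured by CellTiter-Glo luminescence. Final concentrations spanned up to 46 µM (MIPE, 11-point) or 0.59 nM-46 µM (NPC, 8-point) in primary screens, 11-point in follow-ups.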
# [3] = qHTS of pediatric cancer cell lines to identify multiple opportunities for drug repurposing: Primary screen for RD cells (AID 1347104); also: nearly all actives have a fitted effect of over 55% in size
# In short: (§3)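 500-1,000 cells/well; 5 h pre-incubation 37 °C/5% CO2; compound pinned; 48 h; CellTiter-Glo, 15 min RT; luminescence. MIPE 11-pt from 0.78 nM, NPC 8-pt from 0.59 nM final. Bortezomib 2.3 µM final as positive control.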
# [4] = Primary qHTS for small molecule stabilizers of the endoplasmic reticulum resident proteome: Secreted ER Calcium Modulated Protein (SERCaMP) assay (AID 1508630); settings: SH-SY5Y GLuc-SERCaMP (Gaussia luciferase released on ER calcium loss) secretion, thapsigargin, luminescence; activity change, negative = inhibition: at 38.4 µM (top of the series) unless noted
# In short: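 The SH-SY5Y reporter protocol was run at 3 concentrations up to 38.3 uM (primary) or 11 concentrations (follow-up): 16 h compound, 100 nM thapsigargin for 4 h, then extracellular luciferase luminescence.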
# [5] = Primary qHTS for inhibitors of nuclear receptor binding SET domain protein 2 (NSD2) in an RCH-ACV wild type WT cells (2C) (AID 1645877); settings: activity change, negative = cell killing: at 44.9 µM (top of the series) unless noted; also: nearly all actives have a fitted effect of over 70% in size
# [6] = Drug repurposing screens with cells derived from glioblastoma tumor samples (AID 1345199); settings: GBM patient neurospheres viability, ATP luminescence, 48 h; Potency: tumour line A unless noted; activity, negative = cell killing: at 46 µM (top of the series), tumour line A unless noted; also: potency is read from the fitted curve at half-maximal effect; nearly all actives have a fitted effect of over 40% in size
# In short: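 Primary testing used CD133+ neurospheres from four GBM patients, seven concentrations, 48 h exposure and ATP-based viability; confirmation added three slower-growing patient lines.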
# [7] = Primary qHTS for inhibitors of nuclear receptor binding SET domain protein 2 (NSD2) in an isogenic RCH-ACV NSD2 p.E1099K mutant (9B) (AID 1645876); settings: activity change, negative = viability loss: at 44.9 µM (top of the series) unless noted; also: nearly all actives have a fitted effect of over 70% in size
# [8] = Cell Viability - LYMP2-009 (AID 968); also: nearly all actives have a fitted effect of over 55% in size
# [9] = Cell Viability - LYMP2-002 (AID 977);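 also: compound exposure lasted 24 h at 37 °C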
# In short: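 Human lymphoblastoid cells, 2500/well, complete medium; 5 h 37 C settle; compound 24 h 37 C; CellTiter-Glo, 30 min RT; luminescence. Decrease in ATP = cytotoxicity; AC50 via Hill equation.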
# [10] = target: Retinoic acid receptor RXR-alpha (Homo sapiens) (UniProt P19793); experiment: qHTS assay for small molecule agonists of retinoid X receptor alpha signaling (AID 588544; calls by dose curve); settings: HEK293T RXRa-UAS-bla, beta-lactamase reporter, 18 h; activation: at 76.7 µM (top of the series)
# Sequence of UniProt P19793 (P19793 whole entry, looked up): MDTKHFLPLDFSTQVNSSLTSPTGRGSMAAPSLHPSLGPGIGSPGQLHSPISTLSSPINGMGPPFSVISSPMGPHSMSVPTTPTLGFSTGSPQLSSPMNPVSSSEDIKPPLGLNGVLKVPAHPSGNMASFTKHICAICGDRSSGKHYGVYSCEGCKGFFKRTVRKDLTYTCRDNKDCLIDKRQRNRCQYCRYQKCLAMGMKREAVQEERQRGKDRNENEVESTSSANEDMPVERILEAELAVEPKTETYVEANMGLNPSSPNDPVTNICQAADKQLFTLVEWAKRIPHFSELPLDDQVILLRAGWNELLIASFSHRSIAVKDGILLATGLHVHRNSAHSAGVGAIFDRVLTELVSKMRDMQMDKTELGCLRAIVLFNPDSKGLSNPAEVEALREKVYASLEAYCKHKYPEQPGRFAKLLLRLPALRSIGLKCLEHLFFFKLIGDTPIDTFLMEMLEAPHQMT
# [11] = S16 Schwann cell PMP22 intronic element firefly luciferase assay (AID 624032); also: potency is read from the fitted curve at half-maximal effect; nearly all actives have a fitted effect of over 30% in size
# In short: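 Rat S16 Schwann cells stably carrying firefly luciferase driven by a PMP22 intronic element, in 10% FBS, treated 24 h at 37 C. ONE-Glo luminescence normalized to PTC124 control and DMSO (0%); curves classed by r2, magnitude and activity.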
# [12] = qHTS assay to identify small molecules that stimulate interleukin-8 (IL-8) secretion (AID 651758; active = well fitted activation curve with a large enough effect in the signal ratio; inconclusive = small, poorly fitted or top-dose-only effect, or effect the other way, or a change in a side signal; the % refers to the signal ratio); settings: HTRF ratio (665/615); activation: at 92.2 µM (top of the series)
# In short: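 Compounds are added to THP-1 cells (2000 per well) and left 16 hrs at 37 C. A labeled anti-IL-8 antibody pair is then added, and IL-8 secretion is measured by time-resolved FRET after 1-3 hrs at room temperature.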
# [13] = qHTS of pediatric cancer cell lines to identify multiple opportunities for drug repurposing: Primary screen for TC32 cells (AID 1347089); also: nearly all actives have a fitted effect of over 60% in size
# In short: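 Measured quantity: luminescence from CellTiter-Glo, reflecting metabolically active TC32 cells following 48 h of compound. Curves came straight from multi-point titrations, with 8 or 11 points in primary and 11 in confirmatory screening.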
# [14] = qHTS of pediatric cancer cell lines to identify multiple opportunities for drug repurposing: Primary screen for A673 cells (AID 1347092); settings: A673 Ewing sarcoma viability, CellTiter-Glo ATP luminescence, 48 h; activity change, negative = cytotoxic: at 46 µM (top of the series); also: nearly all actives have a fitted effect of over 45% in size
# In short: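 Cells are plated, rested 5 h, dosed by pintool, incubated 48 h, then lysed with CellTiter-Glo and read by luminescence. DMSO is the neutral control; bortezomib at 2.3 uM final is the positive control.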
# [15] = qHTS of pediatric cancer cell lines to identify multiple opportunities for drug repurposing: Primary screen for SK-N-MC cells (AID 1347093); settings: SK-N-MC viability, CellTiter-Glo luminescence, 48 h; activity change, negative = cytotoxic: at 46 µM (top of the series)
# In short: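 Metabolically active cells were quantified by ATP-dependent luminescence (CellTiter-Glo, 15 min at room temperature) following 48 h treatment. Cells had been plated at 500-1,000 per well and settled for 5 h beforehand.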
# [16] = qHTS of pediatric cancer cell lines to identify multiple opportunities for drug repurposing: Primary screen for SK-N-SH cells (AID 1347098);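 also: DMSO served as neutral control and bortezomib at 2.3 µM as positive control; nearly all actives have a fitted effect of over 65% in size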
# In short: as §2
# [17] = qHTS of pediatric cancer cell lines to identify multiple opportunities for drug repurposing: Primary screen for Rh41 cells (AID 1347108);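 also: luminescence drop marks cytotoxic hits; nearly all actives have a fitted effect of over 70% in size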
# In short: as §3
# [18] = target: Calcium and integrin-binding protein 1 (Homo sapiens) (UniProt Q99828); experiment: Primary qHTS for Identification of Calcium Integrin Binding Protein 1 (CIB1) Competitor (AID 1508620);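 also: GST tagged CIB1 binding a fluorescein labelled alphaIIb integrin peptide tracer; top concentration of the series differs between compounds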
# Sequence of UniProt Q99828 (Q99828 whole entry, looked up): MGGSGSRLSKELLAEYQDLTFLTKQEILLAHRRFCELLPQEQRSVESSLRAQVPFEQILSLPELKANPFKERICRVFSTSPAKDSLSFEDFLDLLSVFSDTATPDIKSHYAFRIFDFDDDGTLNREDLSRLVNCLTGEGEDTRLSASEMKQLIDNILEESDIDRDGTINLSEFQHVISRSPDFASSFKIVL
# In short: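 Fluorescence polarization competition: GST-tagged CIB1 (1 uM final) preincubated with compound 15 min at room temperature, then FITC-labelled alphaIIb peptide (100 nM final) added. After 15 min at room temperature, polarization read at Ex 480/Em 540.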
# [19] = target: Cytochrome P450 2D6 (Homo sapiens) (UniProt P10635); experiment: Cytochrome P450 family 2 subfamily D member 6 (CYP2D6) small molecule antagonists: luciferase biochemical (cell-free) qHTS assay (AID 1645840; active = well fitted curve in the direction sought with a large enough effect in the repeat runs; inconclusive = weak or mixed curves; inactive = no such curve, though single readings can be large; an effect the other way counts as inactive or inconclusive; also: nearly all actives have a fitted effect of over 55% in size)
# Sequence of UniProt P10635 (P10635 whole entry, looked up): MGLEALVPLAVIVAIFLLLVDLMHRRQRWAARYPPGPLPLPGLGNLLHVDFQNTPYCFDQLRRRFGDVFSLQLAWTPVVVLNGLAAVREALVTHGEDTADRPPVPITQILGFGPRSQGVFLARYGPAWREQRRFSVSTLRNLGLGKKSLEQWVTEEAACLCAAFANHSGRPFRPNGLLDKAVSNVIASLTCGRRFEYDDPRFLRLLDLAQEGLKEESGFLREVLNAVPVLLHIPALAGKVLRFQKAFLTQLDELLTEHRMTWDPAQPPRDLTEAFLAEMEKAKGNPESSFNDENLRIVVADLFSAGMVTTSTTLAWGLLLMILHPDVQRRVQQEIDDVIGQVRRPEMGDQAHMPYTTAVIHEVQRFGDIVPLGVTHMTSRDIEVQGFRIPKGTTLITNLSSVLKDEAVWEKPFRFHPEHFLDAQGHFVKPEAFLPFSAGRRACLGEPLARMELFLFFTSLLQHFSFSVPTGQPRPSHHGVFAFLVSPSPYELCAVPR
# In short: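 P450-Glo CYP2D6 system: proluciferin substrate converted by enzyme to luciferin, read by luminescence proportional to activity. Enzyme-substrate mix with compound 10 min at room temperature, then NADPH regeneration 1 h before detection reagent.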
# AA1029 = experiment: qHTS profiling for inhibitors of Plasmodium falciparum proliferation (AID 504749); also: nearly all actives have a fitted effect of over 60% in size; settings: P. falciparum in erythrocytes, SYBR Green DNA, 72 h; series mostly up to 28.7 µM
# In short: (§4)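 Each compound contacts P. falciparum-infected red blood cells for 72 h at 37 C; lysis buffer (Tris, EDTA, saponin, Triton X, SYBR Green I) is added and fluorescence measured next morning; values normalized to controls.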
# AS120 = experiment: as above; settings: P. falciparum in erythrocytes, SYBR Green DNA, 72 h; series mostly up to 28.7 µM
# In short: as §4
# CP194 = experiment: as above; settings: P. falciparum in erythrocytes, SYBR Green DNA, 72 h; series mostly up to 28.7 µM
# In short: as §4
# CP201 = experiment: as above; settings: P. falciparum in erythrocytes, SYBR Green DNA, 72 h; series mostly up to 28.7 µM
# In short: as §4
# CP260 = experiment: as above; settings: P. falciparum in erythrocytes, SYBR Green DNA, 72 h; series mostly up to 28.7 µM
# In short: as §4
# CP325 = experiment: as above; settings: P. falciparum in erythrocytes, SYBR Green DNA, 72 h; series mostly up to 28.7 µM
# In short: as §4
# W2 = experiment: as above; settings: P. falciparum in erythrocytes, SYBR Green DNA, 72 h; activity, negative = inhibition: at 28.7 µM (top of the series)
# In short: as §4
# Tags tell the direction and shape of the fitted curve.
smiles,measurement,setting,value
Cc1cc(C(=O)Nc2cccc(C(=O)Nc3cccc(C(F)(F)F)c3)c2)on1,Potency,SKOV3,"inconclusive: 10 µM [rising, partial curve, poor fit]"
same,Potency,Tov-21-G,"inconclusive: 39.8 µM [cytotoxic, single point]"
CC(=O)Nc1ccc(S(=O)(=O)Nc2cc(C)on2)cc1,"activity change, negative = inhibition",[1],inactive: -12.6% and inactive: -0.221%
same,Potency,[2],inactive
same,Potency,[3],inactive
same,Potency,[4],inactive
same,Potency,[5],inactive
same,Potency,SKOV3,"inconclusive: 0.794 µM [rising, partial curve, poor fit]"
same,Potency,Tov-21-G,inactive
same,Potency,[6],"inconclusive: 35.5 µM [inhibitor, partial curve, poor fit]"
C/C=C(\C)C(=O)OC[C@H]1O[C@@H](O[C@H]2[C@@H](O[C@H]3O[C@H](CO)[C@@H](O)[C@H](O)[C@H]3O[C@@H]3O[C@H](CO)[C@@H](O)[C@H](O)[C@H]3O)O[C@H](COC(=O)/C(C)=C/C)[C@@H](O)[C@@H]2O)[C@H](O)[C@@H](O)[C@@H]1O,"activity change, negative = viability loss",[7],inactive: -10.2% [at 9.23 µM]
same,Potency,SKOV3,"inconclusive: 0.891 µM [rising, single point]"
same,"activity change, negative = cytotoxicity",Tov-21-G,inactive: -10% [at 11.6 µM]
CC1(C)C(=O)N2c3ccccc3C(O)(CC(C(=O)O)n3cnc4ccccc4c3=O)C2N1O (stereo unspecified),Potency,SKOV3,inactive
C=C[C@@](C)(O)CC/C=C(\C)C(=O)O[C@@H]1[C@@H]2O[C@]2(C)[C@H]2[C@H](O[C@@H]3O[C@H](CO)[C@@H](O)[C@H](O)[C@H]3O)OC=C[C@@]12O,Potency,[7],inactive
same,Potency,SKOV3,"inconclusive: 2.51 µM [rising, full curve, poor fit]"
same,Potency,Tov-21-G,inactive
CCC(C)C(C(=O)O)N1Cc2c(OCC=C(C)C)c(C)c(OC)c(C(=O)O)c2C1=O (stereo unspecified),Potency,SKOV3,inactive
same,Potency,Tov-21-G,inactive
CCCCCC(N)=O,Potency,[8],inactive
same,Potency,[9],inactive
same,Potency,[10],inactive
same,Potency,[11],active: 14.4 µM
same,activation,[12],inconclusive: 25%
same,Potency,[13],inactive
same,Potency,[14],inactive
same,Potency,[15],inactive
same,Potency,[16],inactive
same,Potency,[3],inactive
same,Potency,[17],inactive
same,Potency,[18],inactive
same,Potency,[19],inactive
same,Potency,SKOV3,inactive
same,Potency,Tov-21-G,inactive
same,Potency,AA1029,inactive
same,Potency,AS120,inactive
same,Potency,CP194,inactive
same,Potency,CP201,inactive
same,Potency,CP260,inactive
same,Potency,CP325,inactive
same,Potency,W2,inactive
